The values below come from ChEMBL document CHEMBL4888484, “Replenishing the malaria drug discovery pipeline: Screening and hit evaluation of the MMV Hit Generation Library 1 (HGL1) against asexual blood stage Plasmodium falciparum ,using a nano luciferase reporter read-out” (2022).

Out of some 150,000 compounds screened, about 540 (0.36%) showed an effect of 50% or more. The list shows a part of the results.

In this test the test system is Plasmodium falciparum. The experiment in a line: Primary screen in NF54 nanoGlo assay, in single point, at 2uM, 72h; a lower Z score goes with more inhibition. It is filed as functional, Erythrocyte. The following applies: timepoint 72 hour.
The term % Inhibition denotes the drop in the measured response relative to a control, in per cent. `CNc1nccnc1-c1cnc2ccc(C)cc2c1`: the “% Inhibition” value was -17% and the Z score is 1.81.
The corresponding values for `CN1C(=O)COC12CCN(CC1CC3(CCC3)C1)CC2` are -8% and 1.24.
The matching figures for `C=CCC1(CNC2CCC(C(=O)O)CC2)CCCC1` (stereo not drawn): -16% and 1.84.
`Cc1cccc(CNC(=O)N2CCC(N3CCC[C@H](O)C3)CC2)c1C`: the “% Inhibition” value is -6% and the Z score came to 1.07.
With `CC(=O)N1CCCC(c2noc(C3CCc4[nH]ncc4C3)n2)C1` (stereo not drawn), the “% Inhibition” value is given as -4% and the Z score was determined as 0.62.
`CCCN(Cc1c(C)nn(-c2ccccc2)c1N1CCN(CC)CC1)C(=O)c1ccc2ccccc2c1`: the “% Inhibition” value was -16% and the Z score amounted to 1.85.
Turning to `O=C(c1cccc(F)c1F)N1C[C@@H]2CC[C@H]1CN(C1CCOCC1)C2`, the “% Inhibition” value is given as -4% and the Z score stood at 0.74.
The matching figures for `Cc1csc(N(CCc2ccccc2)C(=O)c2cnn(C)c2)n1`: 4% and -0.38.
The corresponding values for `CN(C)c1ncc(NC(=O)C2CCCC2)c(N(C)C)n1` are 0% and -0.08.
The corresponding values for `COC(=O)c1ccc(NC(=O)Cn2nc3c(N4CCOCC4)nccn3c2=O)cc1` are 1% and -0.13.
Regarding `C[C@@H](CN1CC2(CCN(Cc3cnn(C)c3C3CC3)CC2)OC1=O)c1ccccc1`, the “% Inhibition” value worked out at 2% and the Z score is -0.23.
The corresponding values for `CC1CN(S(C)(=O)=O)C(C)CN1CCOCC(F)F` (stereo not drawn) are 6% and -1.07.
The matching figures for `C[C@H](Oc1cc(Cl)cc(Cl)c1)C(=O)NCCc1cnn(C)c1`: 10% and -1.3.
The corresponding values for `CCCNC(=O)CN1CC[C@H](c2ncccn2)C1` are -10% and 1.61.
For the compound `CC1CCC(N2C[C@@H](C(=O)N(C)CC(=O)NCc3cccs3)CC2=O)CC1` (stereo partly drawn), the “% Inhibition” value is reported as -7% and the Z score was found to be 0.78.
In the case of `COCCN1CC2(CCC1=O)CCN(C(=O)c1csc(C)c1)CC2`, the “% Inhibition” value was determined as 2% and the Z score is given as -0.21.
The corresponding values for `CC(C(=O)Nc1cc(C(F)(F)F)n[nH]1)C1OCCc2sccc21` (stereo not drawn) are 7% and -0.98.
As for `CCCn1cc(C(=O)N2CCc3[nH]c(-c4cn[nH]c4)nc3C2)c(C)n1`, the “% Inhibition” value is 8% and the Z score is listed as -1.56.
In the case of `CC1(C)CC2=NC(=O)C[C@@H](C(=O)Nc3cc(C(F)(F)F)ccc3Cl)C2=C(O)C1`, the “% Inhibition” value came out at 8% and the Z score was -0.98.
In the case of `Cc1ccncc1CN(C)CCCCC1CCOCC1`, the “% Inhibition” value is reported as -4% and the Z score was determined as 0.75.
The matching figures for `Cc1csc(C(C)CNC(=O)NC2CCN(C(C)C)C2=O)n1` (stereo not drawn): -5% and 0.51.
The matching figures for `CS(=O)(=O)NCC1CCC(C(=O)NC2CCN(Cc3ccccc3)CC2)CC1` (stereo not drawn): -21% and 2.36.
Regarding `NCC1(C(=O)NCc2ccccc2OC2CCC2)CCOCC1`, the “% Inhibition” value was -11% and the Z score is given as 1.25.
The matching figures for `COc1cnc(N(C)Cc2ccc(-n3cccn3)cc2)nc1`: -4% and 0.7.
